In the supplement of paper PMC3334620:
Over roughly 33,000 sequences, “E-score (-0.5 to 0.5)” has its median near -0.011; the highest 2% begin near 0.28. Some of the results follow.

molecular target: T1, Gcr1 (UniProt P07261); assay: PBM E-score (8-mer binding enrichment) (E-score (-0.5 to 0.5)); higher = stronger / more preferred TF binding; most listed sequences are background and not binding sites; settings: protein concentration: 100 nM; construct: GST-full length
T1 sequence: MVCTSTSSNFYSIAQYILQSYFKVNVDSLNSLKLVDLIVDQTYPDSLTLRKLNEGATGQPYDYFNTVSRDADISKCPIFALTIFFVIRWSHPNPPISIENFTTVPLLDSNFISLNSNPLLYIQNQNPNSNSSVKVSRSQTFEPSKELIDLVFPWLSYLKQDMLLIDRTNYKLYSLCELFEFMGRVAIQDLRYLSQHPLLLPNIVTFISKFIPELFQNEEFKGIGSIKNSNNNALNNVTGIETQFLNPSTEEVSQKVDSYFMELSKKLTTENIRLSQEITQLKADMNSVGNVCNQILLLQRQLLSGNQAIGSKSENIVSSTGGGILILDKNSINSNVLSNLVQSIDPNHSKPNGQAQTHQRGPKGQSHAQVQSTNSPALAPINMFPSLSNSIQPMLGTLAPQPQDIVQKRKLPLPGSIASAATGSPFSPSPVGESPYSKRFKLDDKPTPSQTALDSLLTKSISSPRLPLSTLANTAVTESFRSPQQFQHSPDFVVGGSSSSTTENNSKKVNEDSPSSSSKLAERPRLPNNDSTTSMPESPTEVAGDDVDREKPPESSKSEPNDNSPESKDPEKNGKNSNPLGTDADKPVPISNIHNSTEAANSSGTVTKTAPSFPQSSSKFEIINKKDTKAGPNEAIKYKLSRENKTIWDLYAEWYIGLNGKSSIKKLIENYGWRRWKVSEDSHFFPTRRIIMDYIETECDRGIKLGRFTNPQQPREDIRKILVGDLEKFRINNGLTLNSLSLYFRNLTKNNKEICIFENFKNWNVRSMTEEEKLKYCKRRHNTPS
Method: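 Universal 'all 10-mer' protein binding microarrays (Agilent AMADID 015681) probed with GST-tagged S. cerevisiae TFs (full-length or DBD) made by in vitro transcription/translation (PURExpress), about 100-200 nM. Bound TF was detected with fluorescent anti-GST. Each ungapped 8-mer (which stands for itself and its reverse complement) is scored by the PBM enrichment score (E-score), a modified Wilcoxon-Mann-Whitney statistic from -0.5 to +0.5, computed with the Universal PBM Analysis Suite. Scale: above 0.35 generally sequence-specific binding.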

Sequence	PBM E-score
ATCTGACC	-0.0988
AGCGTGAA	-0.0232
AGGTCCTC	-0.0446
GCTGGGCA	-0.0255
TAGGCAGA	-0.0541
CATCATCG	-0.00596
CCACCTAG	0.0499
ACCAACTA	0.215
TCCGGAGA	-0.041
AAGACCGC	-0.0754
CGCGTTAG	-0.0287
ACCTATGC	-0.193
ACGTCTTC	0.0646
CCCAGCCA	-0.298
ATGTCTAG	-0.166
CCTCGGTA	-0.131
ATACGTGA	-0.0634
GATGGTGC	0.0422
AGGTGCTA	0.231
ATGAACTA	-0.0707
ATATGAAT	0.181
CCCGTTAG	0.0113

Sequence	PBM E-score
AGGCCGGC	-0.0562
TATTTTAA	0.219
CCCATCAG	-0.0935
CGGCATAG	-0.058
ACCCCAGC	0.145
CCCGACAG	-0.19
ATTACGAA	0.192
ACGCAAAC	0.00398
CAAAATCA	0.0854
GCTCCCGA	0.122
CGAGGTCA	0.171
AAGAGTAC	-0.0794
CCGCGCCC	0.153
AATAGAGC	-0.107
GGCCCGGA	0.0323
GTCTTGGA	0.0347
CGTATGGC	-0.11
TCTCAAGA	0.146
AACGCAAT	0.129
AAGCATCA	-0.0253
ACCACTTC	0.234
ACTTGCGC	0.0925

Sequence	PBM E-score
CCATTCTC	0.0511
AGCTGCGC	-0.0402
TAAATCTA	0.138
AGGGAAGG	-0.218
ATAGTACA	0.0554
CGGTGTAG	-0.0962
AGGACCAA	-0.0896
CATAAAAG	-0.0258
CCACCTAC	-0.158
AACTCCAA	-0.093
CAACAAGA	0.0034
AGGAGTAG	0.169
AGATAGGA	-0.019
ACATCGAA	-0.265
CGTTTCTC	-0.113
CGCCCCAA	0.139
GCTGTCCC	-0.132
GAGTTCCA	0.123
AGCGTGCC	-0.142
CTCAGTAC	-0.133
ACTGGCTA	0.00213
CCTCTGTC	-0.0698

Sequence	PBM E-score
CACGTAAA	0.0736
GACGTCAC	-0.169
AAAAGGAT	-0.00496
ACCATAAC	0.0527
AGAAACAC	0.0738
CCCGCTAC	0.0999
ACTTACAT	-0.127
ACTCTTTG	0.00433
TCGGGCCA	-0.184
AACTCACA	-0.0268
CCAACCAC	-0.0292
CTAAGAAA	-0.0424
AGCTGCAC	-0.112
GACTCCAC	0.16
ACTACCCT	-0.11
ACCCTTAA	-0.111
ACCAACAC	0.0251
CCGTCCAA	0.13
AGGATCGC	0.198
CGAGTACA	0.01
